Measurements from paper PMC12604968, “Mutant NPM1 modulates PDCD4 ubiquitination degradation and facilitates leukemogenesis” (iScience, 2025).
Results are given in words; binding and its absence hold for the method and conditions named. For part of these data: Binding seen in cells or lysates may run through a third protein. Some binding calls cover weakened binding; strength is not graded here. For part of these data: Sequences can lack the tags named with a protein. Values belong to the molecule of their own block, whether it stands above or below them.

Protein sequences, listed by entry. Tags and fused reporters are not part of them.
UniProt Q09028: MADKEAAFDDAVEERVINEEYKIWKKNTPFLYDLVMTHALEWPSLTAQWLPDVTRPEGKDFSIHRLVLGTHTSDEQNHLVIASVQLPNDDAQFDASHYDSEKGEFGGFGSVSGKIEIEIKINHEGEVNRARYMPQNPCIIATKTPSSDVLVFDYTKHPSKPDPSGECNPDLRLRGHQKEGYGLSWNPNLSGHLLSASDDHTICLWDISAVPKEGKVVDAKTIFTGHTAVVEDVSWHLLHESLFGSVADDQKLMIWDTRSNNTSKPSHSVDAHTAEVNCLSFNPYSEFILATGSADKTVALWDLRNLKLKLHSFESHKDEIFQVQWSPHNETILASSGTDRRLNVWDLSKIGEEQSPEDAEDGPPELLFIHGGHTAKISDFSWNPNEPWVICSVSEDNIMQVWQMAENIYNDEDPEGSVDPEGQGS

Key:
[1] = target: T1, GST-PDCD4 recombinant protein (human, UniProt Q53EL6 1-469); assay: pull-down; GST-PDCD4 immobilised on Glutathione Sepharose 4FF beads, incubated with purified His-tagged proteins; SDS-PAGE, Coomassie blue; both purified
T1 construct: PDCD4 (programmed cell death 4), human, amplified from cDNA of HEK293T cells and cloned into pGEX-6P-1; pGEX-6P-1 is known to add GST at the N-terminus; also called GST-tagged PDCD4; source: E. coli BL21 (DE3), purified (Glutathione Sepharose 4FF)
T1 sequence (looked up): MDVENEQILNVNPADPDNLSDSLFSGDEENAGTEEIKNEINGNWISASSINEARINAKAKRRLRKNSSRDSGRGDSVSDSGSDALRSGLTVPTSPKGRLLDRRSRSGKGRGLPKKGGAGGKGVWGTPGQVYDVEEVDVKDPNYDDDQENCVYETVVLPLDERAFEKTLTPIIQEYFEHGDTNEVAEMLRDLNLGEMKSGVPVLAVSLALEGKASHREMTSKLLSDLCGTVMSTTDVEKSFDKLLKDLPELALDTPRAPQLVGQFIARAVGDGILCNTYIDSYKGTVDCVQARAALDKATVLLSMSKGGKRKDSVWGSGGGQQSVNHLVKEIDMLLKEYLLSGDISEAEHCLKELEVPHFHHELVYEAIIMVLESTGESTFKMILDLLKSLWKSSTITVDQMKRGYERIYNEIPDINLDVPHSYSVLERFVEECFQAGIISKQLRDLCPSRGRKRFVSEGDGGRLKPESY

[2] = target: T1, GST-PDCD4 recombinant protein; assay: pull-down; GST-PDCD4 immobilised on Glutathione Sepharose 4FF beads, incubated with cell lysate; western blot of the pull-down samples; only the target purified
[3] = target: T2, Biotin-PDCD4-NoLS peptide (human); assay: pull-down; biotin-tagged PDCD4-NoLS peptide immobilised on streptavidin-conjugated beads, incubated with AML cell lysate; western blot; only the target purified
T2 sequence (peptide, biotin on the N-terminus): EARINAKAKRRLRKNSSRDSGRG

HA-tagged PDCD4 (human) = target: T3, HA-tagged PDCD4 (human) (UniProt Q53EL6); assay: co-IP; HA-tagged PDCD4 or PDCD4-ΔNoLS overexpressed in HEK-293T cells; lysate immunoprecipitated with anti-HA beads; western blot with anti-HA and anti-RBBP4
T3 sequence: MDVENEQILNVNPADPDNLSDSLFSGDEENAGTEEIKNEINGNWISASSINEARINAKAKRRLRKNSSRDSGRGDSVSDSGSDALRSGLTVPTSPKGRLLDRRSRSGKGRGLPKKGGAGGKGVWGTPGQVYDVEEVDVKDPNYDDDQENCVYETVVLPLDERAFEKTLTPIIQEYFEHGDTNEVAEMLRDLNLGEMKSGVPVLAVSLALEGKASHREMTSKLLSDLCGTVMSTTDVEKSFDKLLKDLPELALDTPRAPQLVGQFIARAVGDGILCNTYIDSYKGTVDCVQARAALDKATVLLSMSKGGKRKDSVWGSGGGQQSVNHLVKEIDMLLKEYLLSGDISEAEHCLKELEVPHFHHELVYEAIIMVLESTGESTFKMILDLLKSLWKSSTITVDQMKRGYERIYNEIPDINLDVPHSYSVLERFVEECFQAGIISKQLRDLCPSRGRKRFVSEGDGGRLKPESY

[4] = target: T4, PDCD4, endogenous (human (endogenous; cell line not stated, all cell lines of the paper are human)) (UniProt Q53EL6); assay: co-IP; PDCD4 and RBBP4; IgG as negative control; cells and antibody not stated
T4 sequence: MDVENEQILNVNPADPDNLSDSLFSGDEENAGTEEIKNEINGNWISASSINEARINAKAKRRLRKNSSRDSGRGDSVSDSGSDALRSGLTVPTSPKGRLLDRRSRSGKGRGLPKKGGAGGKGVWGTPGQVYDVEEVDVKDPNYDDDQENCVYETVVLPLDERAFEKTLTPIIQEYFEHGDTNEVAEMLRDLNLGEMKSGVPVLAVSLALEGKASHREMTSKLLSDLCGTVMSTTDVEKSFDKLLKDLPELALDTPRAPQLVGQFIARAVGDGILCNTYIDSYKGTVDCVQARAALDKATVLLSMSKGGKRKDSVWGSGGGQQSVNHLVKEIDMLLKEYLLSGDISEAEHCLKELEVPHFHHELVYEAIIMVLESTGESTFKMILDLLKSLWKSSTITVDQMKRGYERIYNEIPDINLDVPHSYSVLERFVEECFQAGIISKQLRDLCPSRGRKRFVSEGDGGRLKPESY

[5] = target: T4, PDCD4, endogenous (human (endogenous; cell line not stated, all cell lines of the paper are human)); assay: co-IP; endogenous proteins, whole cell lysates, protein G Dynabeads, anti-PDCD4 antibody, IgG as control; western blot
GFP-PDCD4-NT (human) = target: T5, GFP-PDCD4-NT (human) (UniProt Q53EL6); assay: MST; purified NPM1-NT (50 μM, 16-sample 1:1 dilution series) as ligand, GFP-PDCD4 constructs in HEK293T RIPA lysate as fluorescent targets; Monolith NT.115; only the binder purified
T5 sequence: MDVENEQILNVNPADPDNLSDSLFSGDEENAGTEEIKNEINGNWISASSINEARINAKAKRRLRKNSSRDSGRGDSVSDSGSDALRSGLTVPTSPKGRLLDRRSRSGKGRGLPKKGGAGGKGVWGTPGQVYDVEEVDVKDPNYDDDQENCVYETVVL

GFP-PDCD4-ΔNT (human) = target: T6, GFP-PDCD4-ΔNT (human) (UniProt Q53EL6); assay: condition: 50 μM purified NPM1-NT, 1:1 dilution series of 16 samples; MST; purified NPM1-NT (50 μM, 16-sample 1:1 dilution series) as ligand, GFP-PDCD4 constructs in HEK293T RIPA lysate as fluorescent targets; Monolith NT.115; only the binder purified
T6 sequence: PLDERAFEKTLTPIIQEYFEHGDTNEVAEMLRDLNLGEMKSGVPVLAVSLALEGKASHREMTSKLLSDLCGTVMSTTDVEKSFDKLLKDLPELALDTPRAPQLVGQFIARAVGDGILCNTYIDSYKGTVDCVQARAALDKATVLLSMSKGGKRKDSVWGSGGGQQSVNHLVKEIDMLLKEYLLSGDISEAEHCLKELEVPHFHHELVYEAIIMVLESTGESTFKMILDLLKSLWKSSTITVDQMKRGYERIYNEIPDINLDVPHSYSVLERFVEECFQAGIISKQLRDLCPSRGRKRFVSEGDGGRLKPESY

- binding [1]: binds
Molecule: purified his-tagged RBBP4 protein (from UniProt Q09028 1-425)

- binding [2]: binds
- binding [3]: binds
- binding (HA-tagged PDCD4 (human)): binds
- binding [4]: binds
Molecule: RBBP4, endogenous (from UniProt Q09028 1-425)

- binding [2]: binds
- binding [5]: binds
Molecule: NPM1 (Nucleophosmin 1), endogenous (from UniProt P06748 1-294)

- binding (GFP-PDCD4-NT (human)): binds
- binding (GFP-PDCD4-ΔNT (human)): no binding
B1: His-tagged NPM1 N-terminal domain (NPM1-NT, aa 1-117) (domain or fragment, human, UniProt P06748 1-117, looked up)
chain: MEDSMDMDMSPLRPQNYLFGCELKADKDYHFKVDNDENEHQLSLRTVSLGAGAKDELHIVEAEAMNYEGSPIKVTLATLKMSVQPTVSLGGFEITPPVVLRLKCGSGPVHISGQHLV
notes: source: E. coli BL21 (DE3), purified (Ni-NTA)
